Inconclusive results, whose numbers are uncertain, are shown with a selection of clear calls. For some assays here: Potencies of inconclusive entries are doubtful fits and often do not repeat. Active and inactive are the calls of the source. Unless noted, calls come from the whole dose curve; as a rule, active = well fitted curve in the direction sought with a large enough effect; inconclusive = small, poorly fitted or top-dose-only effect, or another doubt; inactive = no such curve, though single readings can be large; an effect the other way counts as inactive or inconclusive.
Key:
[1] = molecular target: Ubiquitin carboxyl-terminal hydrolase 1 (Homo sapiens) (UniProt O94782); assay: Inhibitors of USP1/UAF1: Pilot qHTS (AID 504865); note: potency is the fitted concentration of half-maximal effect;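 note: rhodamine fluorescence freed from ubiquitin-rhodamine substrate followed over time; nearly all actives have a fitted effect of over 35% in size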; for activity change, negative = inhibition: top concentration of the series differs between compounds; % is set by controls: 0 for no effect and ±100 for the full control effect
Sequence of UniProt O94782 (O94782 whole entry, looked up): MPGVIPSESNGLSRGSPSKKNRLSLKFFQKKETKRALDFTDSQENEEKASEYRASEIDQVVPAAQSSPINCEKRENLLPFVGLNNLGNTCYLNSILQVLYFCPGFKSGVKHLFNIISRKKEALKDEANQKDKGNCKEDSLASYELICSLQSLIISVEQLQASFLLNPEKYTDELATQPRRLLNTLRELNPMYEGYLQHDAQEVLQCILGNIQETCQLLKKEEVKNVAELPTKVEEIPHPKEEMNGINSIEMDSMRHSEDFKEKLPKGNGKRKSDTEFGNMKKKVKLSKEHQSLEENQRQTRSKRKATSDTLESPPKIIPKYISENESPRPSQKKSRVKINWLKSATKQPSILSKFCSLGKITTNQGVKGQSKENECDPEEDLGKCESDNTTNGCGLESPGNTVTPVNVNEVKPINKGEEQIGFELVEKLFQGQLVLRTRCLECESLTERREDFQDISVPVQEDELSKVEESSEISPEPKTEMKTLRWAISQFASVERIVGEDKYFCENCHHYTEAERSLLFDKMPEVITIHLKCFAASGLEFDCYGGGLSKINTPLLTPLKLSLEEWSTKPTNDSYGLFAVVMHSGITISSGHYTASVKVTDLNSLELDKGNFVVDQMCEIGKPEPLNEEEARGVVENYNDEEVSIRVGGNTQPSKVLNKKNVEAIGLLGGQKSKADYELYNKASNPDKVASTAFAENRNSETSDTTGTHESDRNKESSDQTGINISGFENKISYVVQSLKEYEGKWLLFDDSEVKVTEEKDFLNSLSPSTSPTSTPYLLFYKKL
In short: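 Deubiquitinase activity followed as kinetic rhodamine fluorescence release from 150 nM Ub-Rho. 1 nM USP1/UAF1 with compound, after 15 min room-temperature preincubation, in HEPES pH 7.8 buffer containing TCEP, EDTA, BSA and Tween-20.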

[2] = S16 Schwann cell PMP22 intronic element beta-lactamase assay (AID 624044; calls by dose curve;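 note: 0% = DMSO and -100% = potassium clavulanate positive control; nearly all actives have a fitted effect of over 15% in size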); details: S16 rat Schwann cells, PMP22 element beta-lactamase FRET, 24 h; ratio activity, negative = inhibition: at 38.3 µM (top of the series) unless noted
In short: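 Rat S16 Schwann cells with beta-Lac driven by a PMP22 intronic element, compound-treated 24 h at 37 °C. LiveBLAzer FRET B/G read: 460 nm normalized to potassium clavulanate vs DMSO; 535 nm FRET as viability; concentration-effect curves classified.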

[3] = Primary qHTS for small molecule stabilizers of the endoplasmic reticulum resident proteome: Secreted ER Calcium Modulated Protein (SERCaMP) assay (AID 1508630); details: SH-SY5Y GLuc-SERCaMP (Gaussia luciferase released on ER calcium loss) secretion, thapsigargin, luminescence; activity change, negative = inhibition: at 38.4 µM (top of the series) unless noted; note: potency is the fitted concentration of half-maximal effect; for activity change, negative = inhibition: % is set by controls: 0 for no effect and ±100 for the full control effect
In short: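 GLuc-SERCaMP-expressing SH-SY5Y cells, pretreated 16 h with compound, are challenged with thapsigargin to empty ER calcium stores; after 4 h, coelenterazine is added directly to the medium and luminescence is imaged.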

[4] = molecular target: Phospholipid hydroperoxide glutathione peroxidase GPX4 (Homo sapiens) (UniProt P36969); assay: Primary qHTS Assay for Inhibitors of Recombinant Selenoprotein Glutathione Peroxidase 4 (GPX4) (AID 1845192); note: potency is the fitted concentration of half-maximal effect; nearly all actives have a fitted effect of over 65% in size
Sequence of UniProt P36969 (P36969 whole entry, looked up): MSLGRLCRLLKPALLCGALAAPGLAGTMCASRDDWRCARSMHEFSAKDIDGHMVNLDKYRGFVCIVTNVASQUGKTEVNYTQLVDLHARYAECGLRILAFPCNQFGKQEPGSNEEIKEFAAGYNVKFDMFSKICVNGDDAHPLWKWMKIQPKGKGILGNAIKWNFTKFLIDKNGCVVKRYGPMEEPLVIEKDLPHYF
In short: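 GR-coupled readout: 100 nM GR, 1 mM GSH, 0.5 mM NADPH; NADPH fluorescence (ex 340/em 450 nm) read at t=0 and after 15 min RT. GPX4 200 nM, preincubated 30 min with compound; substrate 0.5 mM CHP.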

7G8 = assay: qHTS profiling for inhibitors of Plasmodium falciparum proliferation (AID 504749); note: nearly all actives have a fitted effect of over 60% in size; note: potency is the fitted concentration of half-maximal effect;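 for activity, negative = inhibition: 0% = DMSO vehicle and full inhibition = artemisinin control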; details: P. falciparum in erythrocytes, SYBR Green DNA, 72 h; series mostly up to 28.7 µM
In short: (§1)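 Parasite proliferation within erythrocytes, 72 h exposure. Endpoint: SYBR Green I fluorescence after overnight lysis at room temperature. Controls: 0.29 uM artemisinin, DMSO.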

CP211 = assay: as above; details: P. falciparum in erythrocytes, SYBR Green DNA, 72 h; series mostly up to 28.7 µM
In short: as §1

CP237 = assay: as above; details: P. falciparum in erythrocytes, SYBR Green DNA, 72 h; series mostly up to 28.7 µM
In short: as §1

CP266 = assay: as above; details: P. falciparum in erythrocytes, SYBR Green DNA, 72 h; activity, negative = inhibition: at 28.7 µM (top of the series) unless noted
In short: as §1

CP305 = assay: as above; details: P. falciparum in erythrocytes, SYBR Green DNA, 72 h; series mostly up to 28.7 µM
In short: as §1

DIV14 = assay: as above; details: P. falciparum in erythrocytes, SYBR Green DNA, 72 h; series mostly up to 28.7 µM
In short: as §1

DIV17 = assay: as above; details: P. falciparum in erythrocytes, SYBR Green DNA, 72 h; series mostly up to 28.7 µM
In short: as §1

ICS = assay: as above; details: P. falciparum in erythrocytes, SYBR Green DNA, 72 h; series mostly up to 28.7 µM
In short: as §1

[5] = NFAT Signaling Pathway (AID 444; active = well fitted curve in either direction with a large enough effect, not every such curve was filed as active; inconclusive = small, poorly fitted or top-dose-only effect, or another doubt;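 note: carbachol stimulus at about its EC50 of 1 µM final; % is set by controls: 0 for no effect and ±100 for the full control effect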); details: Jurkat NFAT-bla M1, carbachol, beta-lactamase ratio, 5 h; at 7.69 µM (top of the series) unless noted
In short: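 Jurkat cells carrying an NFAT-driven β-lactamase reporter and co-transfected muscarinic M1 receptor were treated with compound plus carbachol (1 uM final, an EC50 level) for 5 h at 37 °C. CCF4 loading followed for 1 h at RT; 460/530 nm ratio gave %activity.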

[6] = molecular target: 3',5'-cyclic-AMP phosphodiesterase 4B (Homo sapiens) (UniProt Q07343); assay: qHTS Assay for Inhibitors of PDE-IV (AID 607; active = well fitted activation curve with a large enough effect in the main read-out, with a control signal flat, not every such curve was filed as active; inconclusive = small, poorly fitted or top-dose-only effect, or effect the other way, or a change in a side signal; note: potency is the fitted concentration of half-maximal effect); details: HEK293 ACTOne CNG channel cells, membrane potential fluorescence; activation (PDE inhibition): at 22.9 µM (top of the series)
Sequence of UniProt Q07343 (Q07343 whole entry, looked up): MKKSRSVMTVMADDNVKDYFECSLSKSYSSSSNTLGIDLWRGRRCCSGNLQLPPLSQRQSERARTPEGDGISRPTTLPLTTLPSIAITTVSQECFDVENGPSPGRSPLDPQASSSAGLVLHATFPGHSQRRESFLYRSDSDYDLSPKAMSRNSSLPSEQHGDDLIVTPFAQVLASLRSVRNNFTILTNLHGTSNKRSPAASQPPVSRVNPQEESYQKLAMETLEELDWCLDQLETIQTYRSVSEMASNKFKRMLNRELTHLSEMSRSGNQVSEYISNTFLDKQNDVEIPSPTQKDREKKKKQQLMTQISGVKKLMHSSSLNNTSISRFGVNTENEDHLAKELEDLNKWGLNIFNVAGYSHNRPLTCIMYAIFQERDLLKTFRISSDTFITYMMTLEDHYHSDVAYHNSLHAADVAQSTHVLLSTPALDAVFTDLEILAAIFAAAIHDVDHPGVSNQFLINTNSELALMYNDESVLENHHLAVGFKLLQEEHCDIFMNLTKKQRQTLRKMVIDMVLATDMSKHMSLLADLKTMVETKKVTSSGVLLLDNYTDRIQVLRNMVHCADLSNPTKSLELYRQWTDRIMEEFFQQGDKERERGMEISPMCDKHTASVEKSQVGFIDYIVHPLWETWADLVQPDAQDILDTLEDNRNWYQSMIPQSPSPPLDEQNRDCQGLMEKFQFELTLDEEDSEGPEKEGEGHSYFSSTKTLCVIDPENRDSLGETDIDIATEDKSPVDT
In short: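 Live HEK293 cells with a modified cyclic nucleotide-gated (CNG) channel report intracellular cAMP via membrane-potential dye fluorescence (ex 535/em 590 nm). Endogenous PDE-IV was targeted. Compounds were tested at up to 22.9 uM final; RO 20-1724 100 uM served as control.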

[7] = molecular target: Cytochrome P450 3A4 (Homo sapiens) (UniProt P08684); assay: qHTS Assay for Inhibitors and Substrates of Cytochrome P450 3A4 (AID 884); details: recombinant CYP3A4, Luciferin-PPXE luminescence; activity change, negative = inhibition: at 57.1 µM (top of the series); note: potency is the fitted concentration of half-maximal effect; nearly all actives have a fitted effect of over 50% in size
Sequence of UniProt P08684 (P08684 whole entry, looked up): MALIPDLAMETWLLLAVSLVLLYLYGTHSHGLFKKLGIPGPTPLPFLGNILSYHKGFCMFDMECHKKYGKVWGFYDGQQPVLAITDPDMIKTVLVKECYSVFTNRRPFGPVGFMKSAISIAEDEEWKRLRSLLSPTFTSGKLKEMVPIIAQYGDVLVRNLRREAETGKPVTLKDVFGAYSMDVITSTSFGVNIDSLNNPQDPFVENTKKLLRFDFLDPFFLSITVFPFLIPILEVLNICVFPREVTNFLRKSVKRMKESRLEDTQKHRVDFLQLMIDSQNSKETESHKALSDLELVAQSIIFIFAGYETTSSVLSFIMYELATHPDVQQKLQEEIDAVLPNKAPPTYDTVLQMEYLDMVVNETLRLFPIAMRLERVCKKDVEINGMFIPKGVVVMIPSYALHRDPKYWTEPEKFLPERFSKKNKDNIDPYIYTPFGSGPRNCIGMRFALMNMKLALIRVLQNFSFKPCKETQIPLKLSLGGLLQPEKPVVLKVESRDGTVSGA
In short: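 20 nM human CYP3A4 with 25 uM Luciferin-PPXE (at KM) in 200 mM KPO4, preincubated 10 min with compound; NADPH regeneration started a 60 min RT reaction. Luciferin detected by luminescence, normalized to 57 uM ketoconazole as full inhibition.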

[8] = qHTS Assay for Identification of Small Molecule Agonists for Hypoxia Response Element Signaling Pathway (AID 914; active = well fitted activation curve with a large enough effect in the signal ratio, with a control signal flat, not every such curve was filed as active; inconclusive = small, poorly fitted or top-dose-only effect, or effect the other way, or a change in a side signal; the % refers to the signal ratio; note: potency is the fitted concentration of half-maximal effect; for activation: top concentration of the series differs between compounds; % of control where 0% means no effect); details: ME-180 HRE-bla reporter, beta-lactamase ratio, CoCl2, 17 h; activation: active compounds read high
In short: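 ME-180 cells carrying an HRE-driven beta-lactamase reporter were treated with compounds in a titration series plus an EC50 level of CoCl2 for 17 h at 37 degrees Celsius; CCF4 readout as the 460nm/530nm ratio gave AC50 values.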

[9] = molecular target: Dual specificity protein kinase CLK4 (Homo sapiens) (UniProt Q9HAZ1); assay: qHTS Assay for Inhibitors of CDC-like Kinase 4 (ADP-FP Assay) (AID 1795);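 note: recombinant human CLK4 phosphorylating RS repeat peptide at 1 µM ATP; potency is the fitted concentration of half-maximal effect; nearly all actives have a fitted effect of over 60% in size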
Sequence of UniProt Q9HAZ1 (Q9HAZ1 whole entry, looked up): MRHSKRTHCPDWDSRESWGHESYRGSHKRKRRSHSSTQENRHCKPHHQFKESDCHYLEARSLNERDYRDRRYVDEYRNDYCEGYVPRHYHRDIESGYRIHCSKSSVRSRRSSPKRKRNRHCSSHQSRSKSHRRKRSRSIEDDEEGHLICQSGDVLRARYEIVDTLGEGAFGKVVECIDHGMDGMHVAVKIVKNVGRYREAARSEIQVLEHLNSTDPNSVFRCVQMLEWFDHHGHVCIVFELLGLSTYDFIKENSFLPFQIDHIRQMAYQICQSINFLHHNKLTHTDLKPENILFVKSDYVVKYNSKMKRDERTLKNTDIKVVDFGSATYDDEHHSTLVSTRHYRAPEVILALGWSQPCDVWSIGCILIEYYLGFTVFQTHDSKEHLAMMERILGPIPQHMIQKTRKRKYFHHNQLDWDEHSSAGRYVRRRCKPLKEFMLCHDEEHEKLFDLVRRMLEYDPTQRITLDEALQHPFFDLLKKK
In short: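 Kinase activity was measured as ADP production using Transcreener orange tracer (4 nM) and ADP antibody (1 ug/mL) fluorescence polarization, with ADP calculated from a calibration curve. The 1 h reaction contained 6.25 nM Clk4, 1 uM ATP and 100 uM RS peptide at pH 7.5 with Mg2+.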

[10] = AP1 Signaling Pathway (AID 357; active = well fitted curve in either direction with a large enough effect, not every such curve was filed as active; inconclusive = small, poorly fitted or top-dose-only effect, or another doubt;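 note: ME-180 reporter cells stimulated with EGF at its EC50 level; top concentration of the series differs between compounds; % is set by controls: 0 for no effect and ±100 for the full control effect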); details: ME-180 (cervical carcinoma) AP-1-bla reporter, EGF-induced, beta-lactamase ratio, 5 h; at 7.69 µM (top of the series) unless noted
In short: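 AP-1-bla ME-180 cells, Opti-MEM + 0.5% dialyzed FBS, plated overnight 37 °C. Cpd titration + EC50 EGF, 5 h 37 °C. CCF4 2.5 h RT; ex 405, em 460/530 ratio → %activity, AC50.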

[11] = molecular target: Cytochrome P450 2D6 (Homo sapiens) (UniProt P10635); assay: qHTS Assay for Inhibitors and Substrates of Cytochrome P450 2D6 (AID 891);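 note: luciferin methyl ether substrate demethylated by CYP2D6 with NADPH regeneration; potency is the fitted concentration of half-maximal effect; nearly all actives have a fitted effect of over 60% in size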
Sequence of UniProt P10635 (P10635 whole entry, looked up): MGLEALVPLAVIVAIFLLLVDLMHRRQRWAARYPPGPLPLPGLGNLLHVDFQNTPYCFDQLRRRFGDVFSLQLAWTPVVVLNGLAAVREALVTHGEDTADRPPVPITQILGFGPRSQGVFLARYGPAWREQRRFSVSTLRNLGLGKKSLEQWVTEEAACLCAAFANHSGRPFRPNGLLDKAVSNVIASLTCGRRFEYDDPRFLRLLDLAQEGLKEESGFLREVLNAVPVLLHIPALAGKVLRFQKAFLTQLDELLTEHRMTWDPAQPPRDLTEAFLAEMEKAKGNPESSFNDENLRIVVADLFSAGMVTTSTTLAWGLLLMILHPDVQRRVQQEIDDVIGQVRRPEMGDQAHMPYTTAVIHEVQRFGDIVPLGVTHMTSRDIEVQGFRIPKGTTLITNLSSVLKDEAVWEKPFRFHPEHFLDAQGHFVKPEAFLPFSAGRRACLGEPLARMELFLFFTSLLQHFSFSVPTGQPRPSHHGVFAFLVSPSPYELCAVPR
In short: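 Human CYP2D6 (5 nM) with 30 uM Luciferin-ME EGE (at Km) in 100 mM KPO4, compound preincubated 10 min, then NADPH regeneration system for 60 min at room temperature. Luciferin read by luminescence; normalized to 1.43 uM quinidine.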

[12] = molecular target: Mitogen-activated protein kinase 10 (Mus musculus) (UniProt Q61831); assay: JNK3 AlphaScreen Assay (AID 530; active = well fitted curve in either direction with a large enough effect, not every such curve was filed as active; inconclusive = small, poorly fitted or top-dose-only effect, or another doubt;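 note: kinase came from lysate of stimulated human HepG2 cells; signal reports phosphorylation of biotinylated GST-cJun 1-79 at Ser73 with 10 µM ATP; potency is the fitted concentration of half-maximal effect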); details: JNK3 lysate, c-Jun phosphorylation; activity change, negative = inhibition: at 57.1 µM (top of the series)
In short: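 Inhibitors reduce antibody binding to phosphorylated biotin-cJun, lowering AlphaScreen luminescence. Lysates from HepG2 cells pre-activated by IL-1beta plus TNF-alpha supplied JNK3; compounds were titrated.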

[13] = qHTS Assay for Inhibitors of Fructose-1,6-bisphosphate Aldolase from Giardia Lamblia: Giardia lamblia growth inhibition (AID 2785); details: Giardia lamblia trophozoite growth inhibition; activity change, negative = inhibition: at 38.3 µM (top of the series) unless noted; note: potency is the fitted concentration of half-maximal effect; nearly all actives have a fitted effect of over 70% in size
In short: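 G. lamblia WB trophozoites (100 cells/well) in modified TYI-S-33 medium, pH 7.0, were exposed to pin-transferred compounds or DMSO for 48 h at 37C in sealed bags. Viability was read as ATPlite luminescence after 20 min at room temperature.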

[14] = molecular target: Fructose-bisphosphate aldolase (Giardia intestinalis (strain ATCC 50803 / WB clone C6)) (UniProt A8B2U2); assay: qHTS Assay for Inhibitors of Fructose-1,6-bisphosphate Aldolase from Giardia Lamblia: Primary screen confirmation (AID 2787); note: potency is the fitted concentration of half-maximal effect; nearly all actives have a fitted effect of over 45% in size
Sequence of UniProt A8B2U2 (A8B2U2 whole entry, looked up): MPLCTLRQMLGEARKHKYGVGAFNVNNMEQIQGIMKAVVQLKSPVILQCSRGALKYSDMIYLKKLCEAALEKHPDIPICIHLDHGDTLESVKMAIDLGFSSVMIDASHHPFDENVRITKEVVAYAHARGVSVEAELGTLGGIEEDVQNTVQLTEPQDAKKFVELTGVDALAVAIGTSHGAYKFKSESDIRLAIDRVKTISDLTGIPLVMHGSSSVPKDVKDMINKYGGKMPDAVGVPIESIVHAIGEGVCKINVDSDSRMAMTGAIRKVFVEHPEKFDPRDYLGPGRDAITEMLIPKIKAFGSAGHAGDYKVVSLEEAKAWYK
In short: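 Confirmation of primary hits by qHTS up to 57.5 uM final compound. Enzyme at 40 nM with 30 uM ZnCl2, 10 min RT pre-incubation, then substrate/coupling/resorufin-forming detection mix for 20 min before fluorescence read at 525/598 nm.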

[15] = molecular target: Fructose-bisphosphate aldolase A (Oryctolagus cuniculus) (UniProt P00883); assay: qHTS Assay for Inhibitors of Fructose-1,6-bisphosphate Aldolase from Giardia Lamblia: Rabbit FBPA Selectivity (AID 2794); note: potency is the fitted concentration of half-maximal effect; nearly all actives have a fitted effect of over 60% in size
Sequence of UniProt P00883 (P00883 whole entry, looked up): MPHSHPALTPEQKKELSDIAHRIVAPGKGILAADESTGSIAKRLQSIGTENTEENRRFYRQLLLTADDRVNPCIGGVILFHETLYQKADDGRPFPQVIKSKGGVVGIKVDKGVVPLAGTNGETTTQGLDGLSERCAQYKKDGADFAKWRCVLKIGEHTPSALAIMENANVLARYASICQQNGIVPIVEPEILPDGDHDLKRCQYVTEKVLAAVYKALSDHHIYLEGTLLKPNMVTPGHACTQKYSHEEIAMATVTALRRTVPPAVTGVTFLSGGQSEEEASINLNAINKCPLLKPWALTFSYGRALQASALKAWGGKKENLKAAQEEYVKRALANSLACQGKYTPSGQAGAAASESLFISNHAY
In short: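 Rabbit Class I FBPA selectivity counterscreen, 1536-well qHTS: compounds at up to 57.5 uM final preincubated 10 min RT with coupling enzyme reagent, then substrate plus coupled enzymes and AmpLite Red added; 20 min RT, fluorescence read at 525/598 nm.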
Tags give direction and shape of the fitted curve or compound fluorescence and quenching.

O=C(O)CCC/C=C\C[C@@H]1[C@@H](/C=C/[C@@H](O)COc2cccc(Cl)c2)[C@H](O)C[C@@H]1O
inactive: Potency [1] | Potency (CP211) | Potency (CP237) | Potency (CP266) | Potency (CP305) | Potency (DIV14)
inconclusive: ratio activity, negative = inhibition [2] -6.61% [cytotoxic] | Potency [3] 10 µM [inhibitor, partial curve, poor fit] | Potency [4] 3.98 µM [inhibitor, full curve] | Potency (7G8) 8.91 µM [inhibitor, partial curve] | Potency (DIV17) 19 µM [inhibitor, partial curve, poor fit] | Potency (ICS) 17.8 µM [inhibitor, single point]

FC(F)(F)c1ccccc1-c1nc(NC2CC2)c2ccccc2n1
active: Potency [7] 3.16 µM
inconclusive: Potency [6] 12.6 µM [activator, partial curve] | activation [8] 14.3% | Potency [9] 12.6 µM [falling, partial curve]
inactive: activity change, negative = inhibition [5] 8.57% | Potency [3]

COc1ccc2[nH]cc(CCNc3ncnc4ccc(-c5cccc(C#N)c5)cc34)c2c1
inconclusive: activity change, negative = inhibition [10] -60.5% [inhibitor] | activity change, negative = inhibition [5] -59.2% [inhibitor] | Potency [6] 0.316 µM [inhibitor, full curve, poor fit] | Potency [11] 3.16 µM [inhibitor, full curve] | Potency [9] 11.2 µM [falling, partial curve] | Potency [3] 12.6 µM [inhibitor, single point]

COc1cccc(-c2nc(NC3CCNCC3)c3ccccc3n2)c1
active: Potency [9] 12.6 µM
inconclusive: Potency [8] 3.98 µM [activator, single point] | Potency [3] 22.4 µM [inhibitor, partial curve, poor fit]

CC1(C)C(=O)NC2=C1C(=O)C(=O)c1ccccc12
inactive: Potency [3]
inconclusive: Potency [12] 39.8 µM [inhibitor, single point]
active: Potency [13] 15.8 µM | Potency [14] 1.12 µM | Potency [15] 0.891 µM | Potency [1] 0.891 µM

CN(C)c1nc(-c2cccc(C#N)c2)nc2ccccc12
inconclusive: activity change, negative = inhibition [5] 4.86% [activator] | Potency [12] 25.1 µM [activator, partial curve] | Potency [6] 10 µM [activator, single point] | Potency [9] 1.26 µM [falling, partial curve] | Potency [3] 28.2 µM [inhibitor, single point]
